# According to PubChem BioAssay AID1460 (National Center for Advancing Translational Sciences (NCATS), 2008):
# Where “and” joins values, the source holds several entries; their conditions need not be identical. Equal values may be shown once. Out of some 270,000 compounds screened, about 5,800 (2.1%) were called active. Inconclusive results, whose numbers are uncertain, are shown with a selection of clear calls. Calls come from the whole dose curve; as a rule, active = well fitted inhibition curve with a large enough effect; inconclusive = small, poorly fitted or top-dose-only effect; inactive = flat fitted curve, though single readings scatter. Potencies beside an inconclusive call are fits to weak or partial responses and may not hold up.
# Target: Microtubule-associated protein tau (Homo sapiens) (UniProt P10636)
# UniProt P10636, sequence (P10636 whole entry, looked up): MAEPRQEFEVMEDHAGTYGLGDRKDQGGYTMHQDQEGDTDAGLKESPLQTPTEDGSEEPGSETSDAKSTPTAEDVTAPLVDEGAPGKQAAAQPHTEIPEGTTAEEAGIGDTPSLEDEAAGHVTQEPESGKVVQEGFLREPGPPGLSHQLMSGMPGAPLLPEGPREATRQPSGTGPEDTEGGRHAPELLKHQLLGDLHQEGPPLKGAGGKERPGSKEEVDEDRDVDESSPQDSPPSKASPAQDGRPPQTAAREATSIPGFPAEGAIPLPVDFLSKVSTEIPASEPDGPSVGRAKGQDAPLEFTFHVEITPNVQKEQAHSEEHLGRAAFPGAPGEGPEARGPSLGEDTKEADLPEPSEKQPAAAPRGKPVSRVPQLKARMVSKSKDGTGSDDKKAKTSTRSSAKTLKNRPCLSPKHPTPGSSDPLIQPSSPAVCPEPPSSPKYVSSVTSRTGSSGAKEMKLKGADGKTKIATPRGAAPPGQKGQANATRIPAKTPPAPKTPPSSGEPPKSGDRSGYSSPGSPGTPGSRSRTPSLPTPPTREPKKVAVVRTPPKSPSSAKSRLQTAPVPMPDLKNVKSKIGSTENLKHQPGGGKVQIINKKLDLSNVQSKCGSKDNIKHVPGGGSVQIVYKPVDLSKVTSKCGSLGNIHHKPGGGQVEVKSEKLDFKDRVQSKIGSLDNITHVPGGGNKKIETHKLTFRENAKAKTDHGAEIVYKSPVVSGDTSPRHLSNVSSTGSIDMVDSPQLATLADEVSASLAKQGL
# Experiment: qHTS for Inhibitors of Tau Fibril Formation, Thioflavin T Binding; note: nearly all actives have a fitted effect of over 55% in size
# Settings: recombinant tau K18 P301L (four-repeat tau fragment), heparin-induced fibrillization, ThT fluorescence; series mostly up to 57.4 µM
# How it was run: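 In this qHTS, human K18 P301L tau is incubated with compound and heparin for 6 hr at 37 C, and Thioflavin T fluorescence then reports fibril load.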
# Potency is the fitted concentration of half-maximal effect; tags give direction and shape of the fitted curve.
row,Structure (SMILES),Potency
1,CN1CCN(CC(O)COc2ccc(C34CC5CC(CC(C5)C3)C4)cc2)CC1 (stereo unspecified),inactive
2,O=C(c1ccccc1)N1CCc2cc(CNS(=O)(=O)c3ccc(Cl)s3)ccc21,inactive
3,CCc1ccc(N(CC)C(=O)c2ccc3c(Cl)c4c(nc3c2)CCC4)cc1,"inconclusive: 31.6 µM [inhibitor, partial curve]"
4,Cn1nc(C(F)(F)F)cc1-c1ccc(/C=C(\C#N)C(=O)c2cccc(C(F)(F)F)c2)s1,"inconclusive: 7.08 µM [inhibitor, partial curve, poor fit]"
5,COc1ccc(NS(=O)(=O)c2ccc(S(=O)(=O)N3CCCC3)cc2)cc1,inactive
6,O=C(CCSCc1cccc(Cl)c1)NCCc1ccc(Cl)cc1,"inconclusive: 35.5 µM [inhibitor, single point]"
7,CN(C)/C=C(\C=N\OCc1ccc(Cl)cc1Cl)C(=O)Nc1ccc(Cl)c(Cl)c1,"inconclusive: 25.1 µM [inhibitor, partial curve]"
8,CCNC(=O)c1ccc(C2SCC(=O)N2Cc2ccco2)cc1 (stereo unspecified),inactive
9,CCOC(=O)C1CCN(c2ncnc3c2[nH]c2cccc(OC)c23)CC1,"inconclusive: 12.6 µM [inhibitor, partial curve]"
10,COc1ccc(CCn2c(-c3ccco3)nc3nc4ccccc4nc32)cc1,inactive
11,COc1cc(CNCCc2c[nH]c3ccccc23)ccc1OCc1ccccc1F,"inconclusive: 11.2 µM [inhibitor, single point]"
12,CCCOc1ccc(CNC(=S)N/N=C/c2ccc([N+](=O)[O-])cc2)cc1,"inconclusive: 7.94 µM [inhibitor, partial curve]"
13,Cc1cc2cc(C(c3nnnn3Cc3ccco3)N3CCc4ccccc4C3)c(=O)[nH]c2cc1C (stereo unspecified),active: 28.2 µM
14,O=C(Nc1ccc(NC(=O)c2ccco2)cc1)c1ccc2c(c1)OCO2,"inconclusive: 2.51 µM [inhibitor, full curve, poor fit]"
15,COc1cc(C2C(C#N)=C(N)N(c3ccc(F)cc3)C3=C2S(=O)(=O)CC3)ccc1O (stereo unspecified),"inconclusive: 22.4 µM [inhibitor, partial curve]"
16,Cc1cccc2nc(CSCc3ccco3)cn12,"inconclusive: 31.6 µM [inhibitor, partial curve]"
17,Cc1cccc(-c2nc3c(cnn3-c3ccccc3)c(=O)n2-c2ccc(Cl)cc2)c1,"inconclusive: 17.8 µM [inhibitor, partial curve, poor fit]"
18,Cn1cc(S(=O)(=O)CC(=O)Nc2ccc3c(c2)OCO3)c2ccccc21,"inconclusive: 17.8 µM [inhibitor, single point]"
19,O=C(/C=C/Nc1cccc(O)c1)c1ccccc1,"inconclusive: 14.1 µM [inhibitor, partial curve]"
20,CCN1CCN(Cc2ccc(NC(=O)c3ccc(C)c(NC(=O)c4c[nH]c5cc(C(F)(F)F)ccc5c4=O)c3)cc2C(F)(F)F)CC1,"inconclusive: 4.47 µM [activator, single point]"
21,COc1cc(C2C3=C(CCCC3=O)Nc3c2c(C)nn3-c2cccc(C)c2)cc(OC)c1O (stereo unspecified),"inconclusive: 35.5 µM [inhibitor, single point]"
22,Cc1cccc(CSc2cn(CC(=O)N3CCOCC3)c3ccccc23)c1,"inconclusive: 14.1 µM [inhibitor, partial curve] and inconclusive: 25.1 µM [inhibitor, single point]"

row,Structure (SMILES),Potency
1,C=C(C(C)=O)C(O)c1ccc(Cl)cc1 (stereo unspecified),inactive
2,C=CCN(CC=C)C(=S)NC(=O)Cc1cccc2ccccc12,"inconclusive: 25.1 µM [inhibitor, partial curve, poor fit]"
3,CC1(OC(=O)C2CCCC2)C(=O)C=C2C=C(c3ccsc3)OC=C2C1=O (stereo unspecified),active: 15.8 µM
4,C/C(=N\O)C(=O)NCc1ccncc1,inactive
5,COc1cccc(NC(=O)Cn2nc(N3CCN(c4ccccc4)CC3)ccc2=O)c1,"inconclusive: 28.2 µM [inhibitor, single point]"
6,CSc1nn2c(C(F)(F)F)cc(C(F)(F)F)nc2c1C(=O)O,"inconclusive: 20 µM [inhibitor, single point]"
7,Cc1ccnc(SCc2cc(=O)c(OC(=O)c3ccc(S(=O)(=O)N(C)C)cc3)co2)n1,"inconclusive: 7.94 µM [inhibitor, partial curve]"
8,Nc1nc(-c2ccc3ccccc3c2)cs1,"inconclusive: 14.1 µM [inhibitor, partial curve]"
9,Cc1ccc(N=c2oc3cc(O)ccc3cc2C(N)=O)cc1,"inconclusive: 44.7 µM [inhibitor, partial curve]"
10,Clc1ccc(C2=Nn3c(nnc3-c3n[nH]c4c3CCC4)SC2)cc1Cl,"inconclusive: 31.6 µM [inhibitor, single point]"
11,CN1CCN(c2ccc(NC(=O)c3cccc(OCc4ccccc4)c3)cc2)CC1,"inconclusive: 25.1 µM [inhibitor, partial curve]"
12,Cc1cc2ccccn2c1C(=O)Nc1cccc(Cl)c1,"inconclusive: 31.6 µM [inhibitor, partial curve, poor fit]"
13,O=C(CN1CCOCC1)Nc1ccc(Oc2ccc(NC(=O)CN3CCOCC3)cc2)cc1,inactive
14,CCN1CCN(C(=S)c2ccc(-c3ccccc3)cc2)CC1,inactive
15,Cc1cccc(-c2nc(SCc3cc(=O)c4c(C)cc(C)cc4[nH]3)n[nH]2)c1,inactive
16,Cc1nn(Cc2ccccc2)c(Cl)c1C(=O)NCCc1ccccc1,inactive
17,CCOC(=O)c1cc2c(ccn2C)n1CC(=O)Nc1ccc(F)cc1,active: 28.2 µM
18,Cc1nn(C(C)C(=O)NCc2ccc(OC(C)C)cc2)c(=O)c2c1sc1ccccc12 (stereo unspecified),"inconclusive: 20 µM [inhibitor, partial curve]"
19,COC1CCCN(Cc2nc(Cc3ccccc3F)no2)C1 (stereo unspecified),inactive
20,Cc1ccc2nc(Cl)c(C3CC(c4ccco4)=NN3S(C)(=O)=O)cc2c1 (stereo unspecified),"inconclusive: 7.94 µM [inhibitor, partial curve, poor fit]"
21,COc1ccc(NC(=O)c2cnn3c(C(F)(F)F)cc(-c4ccco4)nc23)cc1OC,"inconclusive: 10 µM [inhibitor, partial curve]"
22,CC(C)NC(=S)N/N=C/c1ccc(N2CCOCC2)cc1,"inconclusive: 7.08 µM [inhibitor, partial curve]"

row,Structure (SMILES),Potency
1,Cc1ccc(NC(=O)Cn2c(=O)n(Cc3nc(-c4ccccc4)no3)c(=O)c3ccccc32)c(C)c1,inactive
2,CCCn1nnc(NC(=S)NC(=O)c2cccs2)n1,inactive
3,CCN(C(=O)CN1C(=O)c2ccccc2Sc2ccc(C(=O)OC)cc21)c1cccc(C)c1,inactive
4,Cc1ccc(OCC(=O)Nc2ccc(OCc3cc(=O)n4ccsc4n3)cc2)cc1C,"inconclusive: 0.251 µM [inhibitor, full curve]"
5,O=C(O/N=C\c1ccc(N2CCCCC2)c([N+](=O)[O-])c1)c1cccc(C(F)(F)F)c1,"inconclusive: 5.01 µM [inhibitor, full curve]"
6,COc1ccc(N2CCN(C(=O)CSc3nnc(CNc4ccccc4)o3)CC2)cc1,"inconclusive: 2.24 µM [inhibitor, partial curve]"
7,O=C(NCC(c1ccco1)N1CCN(c2ccc(F)cc2)CC1)OCc1ccccc1 (stereo unspecified),"inconclusive: 31.6 µM [inhibitor, single point]"
8,COc1cc(C2Nc3ccc4ncccc4c3C3=C2C(=O)CCC3)cc(OC)c1O (stereo unspecified),"inconclusive: 10 µM [inhibitor, partial curve]"
9,O=C(Nc1ccc2c(c1)OCO2)c1ccc(COc2ccc3c(c2)CCC3)o1,"inconclusive: 12.6 µM [inhibitor, partial curve]"
10,COc1c(Cl)cc(C(=O)Nc2cc(-c3nc4ccccc4[nH]3)ccc2C)cc1Cl,"inconclusive: 1.41 µM [inhibitor, partial curve]"
11,COc1ccc(N=Nc2cc(C)ccc2O)cc1,active: 15.8 µM
12,CCOC(=O)c1cc(-c2ccc(/C=C3/C(=O)NC(=O)C(C#N)=C3C)o2)ccc1Cl,"inconclusive: 35.5 µM [inhibitor, partial curve, poor fit]"
13,O=C(NCc1cccs1)c1ccc2c(c1)sc1nc(-c3ccc(F)cc3)cn12,"inconclusive: 10 µM [inhibitor, single point]"
14,COc1ccc(NCc2nn(CC(=O)c3ccc(Br)cc3)c3[n+]2CCCCC3)cc1,"inconclusive: 20 µM [inhibitor, partial curve]"
15,CC1(C)Cc2ccccc2C(CSc2ccccc2C(=O)O)=N1,"inconclusive: 14.1 µM [inhibitor, partial curve]"
16,COc1ccc(-n2c(SCC(=O)Nc3nccs3)nc3sc4c(c3c2=O)CCN(C)C4)cc1,"inconclusive: 14.1 µM [inhibitor, partial curve]"
17,COc1ccc(N2CCN(C(=O)Nc3cn(CC(C)C)c(=O)c4ccccc34)CC2)cc1,"inconclusive: 25.1 µM [inhibitor, partial curve]"
18,O=C(N/N=C/c1ccc(OC2CSC2)cc1)c1ccccc1,"inconclusive: 1.78 µM [inhibitor, full curve]"
19,CC(=O)NC(=S)Nc1ccc(-c2nc3ccc(C)cc3s2)cc1,"inconclusive: 0.562 µM [inhibitor, full curve]"
20,COc1ccc(/C=C/C(=O)Nc2ccc3nc4n(c(=O)c3c2)CCCC4)cc1OC,"inconclusive: 0.447 µM [inhibitor, full curve]"
21,CCOC(=O)C1(CC)NC(c2ccco2)C2C(=O)N(c3ccc(C)cc3)C(=O)C21 (stereo unspecified),"inconclusive: 39.8 µM [inhibitor, single point]"
22,C/C(CC(=O)N1CCN(C=O)CC1)=N\NC(=O)c1ccc(Cl)cc1,inactive
